Test results published in the supplement of paper PMC10126150.
Values marked as one replicate rest on one cluster of the flow cell; about a third of the high ones do not repeat.

Test system: ATP
Assay: switch fluorescence ratio, 500 uM ATP over buffer (Cy3 cluster intensity, sum of 5 cycles each) (fold (ratio)); higher = stronger signal-on switching upon ATP binding; sequences stand for … in TCGTCGGCAGCGTCAGATGTGTATAAGAGACAGTTTTTTTTTTTTTTTTTTTTTTTTT…TC
Conditions: aptamer strand: ATP DNA aptamer (quencher-CACCTGGGGGAGTATTGCGGAGGAAGG + anchor), 100 nM annealed; ATP concentration: 500 uM; one replicate
Summary of the method: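 Between each of five buffer/ATP cycles, the flow-cell was stripped with NaOH and re-annealed. Each cycle imaged Cy3-labelled switching-strand clusters, annealed to 100 nM quencher-labelled ATP aptamer on a modified Illumina MiSeq flow-cell, first in selection buffer and then after 15 min with 500 uM ATP at 22 °C. The fluorescence ratio is summed target-cycle over summed buffer-cycle Cy3 intensity per cluster, averaged per switch-domain sequence, with clusters outside 100-1000 RFU excluded.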
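Note: ATP exposure 15 min at 22 °C before imaging.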

Row | Sequence | switch fluorescence ratio
1 | GTTAAAGTAC | 1.36
2 | TCATAGGCTC | 0.987
3 | CGCGGTAAA | 1.03
4 | GGCCAGCACT | 0.991
5 | TGCACCGCTA | 1.09
6 | GGTTCTACGC | 1.04
7 | AGACGCAGTT | 1
8 | AAGAACGAGG | 1.02
9 | ACTGCGCGGA | 1.23
10 | AGTAGTCCCT | 1.03
11 | GAGTAATAAT | 1.03
12 | TGGTAGAATT | 0.981
13 | GAGTGGTCGA | 0.934
14 | AATTCAATCG | 1.02
15 | AGGGCCTCAG | 1.06
16 | TTATCCCTGT | 1.04
17 | TTACTCTGT | 1.02
18 | GACCATGGAG | 0.963
19 | GTAAGCTCTG | 0.952
20 | AAGGAATTG | 1.07
21 | TACAACTTCT | 0.952
22 | CATAAGAAAT | 0.972
23 | TCATTGAAGG | 0.962

Row | Sequence | switch fluorescence ratio
24 | GGATACGAA | 1.01
25 | TCAAGTGGGT | 0.952
26 | ACGACTTTTC | 1.09
27 | AAGGATCGGT | 0.996
28 | CGGCGTCGTT | 1.04
29 | GAAATTAAGG | 0.995
30 | GATGAGTTCG | 1.03
31 | AGGCTAGAAT | 0.951
32 | TGCAGACATT | 0.988
33 | CCTGTAGAAG | 1.01
34 | AACTTAGTA | 0.992
35 | GTGGCCACTC | 0.967
36 | TCGCACGGGT | 1.08
37 | CCGTCGAGGG | 1.03
38 | TTAGCTCACT | 1.02
39 | TGCCCTCTAG | 1.02
40 | AGTAGGTGCT | 1
41 | GGGTAAGACT | 1.04
42 | AAACTAAGC | 0.964
43 | CATGTGGTG | 0.966
44 | GGTATCTCAT | 1.03
45 | GGGGTCCTGT | 1.01
46 | CCCGAGCGAA | 2.46

Row | Sequence | switch fluorescence ratio
47 | AAAGACTGCG | 0.997
48 | GGTGAAAGTT | 0.968
49 | GAATGGGAAG | 0.993
50 | GCTGATGGAA | 1.05
51 | GTAGATGCCT | 0.99
52 | TTGTCGGAG | 0.918
53 | ATCAAACCAG | 1.04
54 | ATAGGTATCA | 0.994
55 | CTAAGTTTCA | 0.951
56 | ATTGCTTTAG | 1.01
57 | CGTAGGTTCC | 1.03
58 | TTGCAAGTTC | 1.15
59 | GACGCGCCAG | 0.994
60 | CAGGACGGCC | 1
61 | GGCTGGGCGT | 1.02
62 | TGGAATTTGC | 1.02
63 | ACCAAAGCCC | 1.03
64 | TATTAACCGG | 1.01
65 | CGCATTATGT | 1.44
66 | GAAACACTCT | 1
67 | AGTAGCGGTA | 0.98
68 | TGAGACTTCG | 0.957
69 | AGCAAATTTA | 1.08

Row | Sequence | switch fluorescence ratio
70 | CGCCCAGGGA | 2.85
71 | GGATCCATGC | 1.03
72 | CTGTTGGTGT | 1.03
73 | GCGTGCGGG | 1.03
74 | GTTTTGAGCT | 1.02
75 | GAAAGATTGT | 0.964
76 | CCACCACCCC | 1.31
77 | TCAGGGTGCG | 0.998
78 | GTGATGAGTA | 0.93
79 | CTGGAAGGGC | 1.06
80 | TGCAGGTGAT | 0.951
81 | CCAAGATAAC | 2.27
82 | TGACTGTTGC | 0.983
83 | GGCTAGAGTG | 1.01
84 | ATTGTTAATA | 0.991
85 | TTAAATTACA | 0.969
86 | TTCATAAGCA | 0.995
87 | GGAGAATGAG | 0.982
88 | GGCACTACGC | 1.09
89 | CTGGTGATTG | 0.993
90 | TCCGAATATA | 1.17
91 | GTATTTCACC | 1.06
92 | GGCCCAATGA | 1.02

Row | Sequence | switch fluorescence ratio
93 | TGCCTGATGG | 1.01
94 | GATCGCGGGC | 1.14
95 | AAAGAGCGTT | 1.04
96 | CCTGATGCGC | 1.25
97 | CCATAGGATT | 1.04
98 | ATATGGTCGA | 1
99 | CATATCTTAA | 0.978
100 | CCAGAGACGG | 1.03
101 | AAATTGTCCT | 1.09
102 | AATTACAACG | 1.03
103 | ACCCTAGTTT | 1.04
104 | GCCTTTAAAA | 1.01
105 | ACCATAGCCC | 1.18
106 | ATCTTGTAGG | 1
107 | CTCTGGAGAC | 2.52
108 | TTACTTGCGC | 1.16
109 | ATATACTTG | 1.05
110 | CGTTGAAGTG | 0.957
111 | TTATGCCATC | 1.07
112 | ATCGGCGGAC | 1.14
113 | ACTGCAGGGG | 1.07
114 | CCGGTAATTG | 1.06
115 | ATGAAGAAAC | 1.03

Row | Sequence | switch fluorescence ratio
116 | TCAGTCAGTG | 1.05
117 | TTGGCGGTCT | 1.04
118 | GGAAGTGCAG | 0.984
119 | ACATTTTGTC | 1
120 | CCCTTTGAAT | 0.97
121 | GGTCAAGGC | 1.11
122 | ATGAGCATCG | 0.976
123 | CCTTAAAATG | 1.08
124 | AATAGGTTCT | 0.988
125 | AGGGAAGGTA | 1.01
126 | GGCCGTAGCC | 0.987
127 | AAAGTATTAG | 0.968
128 | GCGTTTGTGT | 0.958
129 | TGTTCTCCAA | 1.01
130 | ATCTATCCGG | 0.979
131 | GGCCGTCAAA | 0.954
132 | ATACCATGCT | 0.998
133 | GGTTGTTTCC | 1.05
134 | AATTTCCAGG | 1.53
135 | CTAACGGGCG | 0.951
136 | AGGAAAGCAG | 0.992
137 | CCCCCCCCGA | 1.1
138 | TACGACACTC | 1.47

Row | Sequence | switch fluorescence ratio
139 | TGGGACCGTA | 1.05
140 | CGGCCAGTGG | 1.08
141 | AAATGTAAAC | 1
142 | ATCTGAGGCT | 0.982
143 | TGTTTTACGT | 1.03
144 | GGTAGAGGCT | 1.02
145 | GGGTTATTAC | 0.999
146 | GCAGCGAGGA | 1.2
147 | TAAACGCATA | 1.85
148 | AAGCACTCAA | 1.2
149 | CGGAGTGATT | 1.38
150 | GAGTTCACGA | 1.11
151 | AAATGGCAAA | 0.959
152 | GCCCTTTGGC | 0.992
153 | TTGGGCTGAC | 1.32
154 | AAATATCGGG | 1.03
155 | GGAATCAAAA | 0.949
156 | CCGGTATTCT | 1.11
157 | AGGCCCGCCC | 0.989
